PubChem BioAssay AID588855 (National Center for Advancing Translational Sciences (NCATS), 2011)
The whole screen tested about 410,000 compounds, of which about 5,000 (1.2%) were called active. Inconclusive means that the source gave no clear call. Such entries were picked first, then a sample of the others. Calls follow the shape of the dose curve; as a rule, active = well fitted inhibition curve with a large enough effect; inconclusive = small, poorly fitted or top-dose-only effect; inactive = no such curve, though single readings can be large or run the other way. Potencies of inconclusive entries are doubtful fits and often do not repeat.

Assay: qHTS for Inhibitors of TGF-b; also: nearly all actives have a fitted effect of over 65% in size
Details: HepG2 CAGA-GFP TGF-b/SMAD3 reporter, GFP fluorescence, 18 h, TGF-beta stimulated, 500 pg/mL final; series mostly up to 46.1 µM; activity, negative = inhibition: at the top concentration
Procedure, shortened: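 HEPG2 CAGA-GFP, 1000 cells/well; 2 h settle, 37 C; cpd via pin tool; TGF-b 500 pg/mL final; 18 h, 37 C; GFP imaging ex488/em500-530; %Activity normalised to -TGF-b and +DMSO controls; CRC fit, curve class.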
% is scaled to controls: 0 for no effect and ±100 for the full control effect; potency is read from the fitted curve at half-maximal effect; tags tell the direction and shape of the fitted curve.

Row | SMILES | activity, negative = inhibition | Potency
1 | COc1ccc(Cn2nnnc2C(c2ccccc2)N2CCN(C3CCCC3)CC2)cc1 (centres undefined) | inactive: 0.572% | –
2 | Cc1ccccc1CSCc1ccc(C(=O)NCCc2ccccc2)o1 | – | inconclusive: 25.1 µM [inhibitor, single point]
3 | COc1cccc(NC(=O)c2oc3ccc(S(=O)(=O)N4CCC5(CC4)OCCO5)cc3c2C)c1 | inactive: 0% | –
4 | CC(=NNc1nc2ccccc2o1)c1cc2ccccc2cn1 | – | active: 0.316 µM
5 | Clc1ccc(/C=N/NC(=Nc2ccccc2)c2ccccn2)c(Cl)c1 | inactive: -23.5% | –
6 | CCCNC(=O)c1onc(CSc2ccc(Cl)cc2)c1C(=O)NC(C)C | inactive: 11.1% | –
7 | CCOc1ccc(CSCCNC(=S)Nc2ccccc2)cc1 | inactive: -26.2% | –
8 | COc1ccc(-c2cn[nH]c2-c2ccc(OCC(=O)NN)cc2O)cc1 | inactive: 1.21% | –
9 | COc1ccc(CCC(=O)OCC(=O)NC2CCCC2)cc1OC | – | inconclusive: 20 µM [inhibitor, partial curve, poor fit]
10 | Cc1ccc(-n2cc(CN3CCC(CO)(Cc4cccc(C(F)(F)F)c4)CC3)cn2)cc1 | – | inconclusive: 35.5 µM [inhibitor, single point]
11 | Cc1cc(CC(C)C)n(-c2nc3ccccc3c(=O)n2OCC(=O)N(C)C)n1 | – | inconclusive: 1.41 µM [inhibitor, partial curve, poor fit]
12 | CC(=O)Nc1ccc(S(=O)(=O)N(C)CC(=O)OC(C)C(=O)NC2(C#N)CCCCC2)cc1 (centres undefined) | inactive: -2.77% | –
13 | CC(NCc1cccs1)C(=O)Nc1cc(Cl)cc(Cl)c1 (centres undefined) | – | inconclusive: 35.5 µM [inhibitor, single point]
14 | Cn1c(=O)c2c(nc(NCc3ccccc3)n2Cc2ccc(Cl)c(Cl)c2)n(C)c1=O | – | inconclusive: 22.4 µM [inhibitor, partial curve, poor fit]
15 | COc1ccc(C(=O)NCCc2nc3ccccc3[nH]2)cc1 | inactive: -10.2% | –
16 | CN(C)C(=O)c1cccc(-c2cnc3c(NC=O)cc(-c4ccccc4N(C)C)cn23)c1 | inactive: -20.6% | –
17 | COc1ccccc1N1CCN(C(=O)c2[nH]c(C(F)(F)F)nc2-c2ccccc2)CC1 | – | inconclusive: 20 µM [inhibitor, single point]
18 | CC(C(=O)N1CCN(c2ccccc2)CC1)c1ccc([N+](=O)[O-])cc1 (centres undefined) | inactive: 0.0236% | –
19 | CN(CCOc1ccc(Cl)cc1)Cc1cccc(S(=O)(=O)N(C)C)c1 | inactive: -24.7% | –
20 | Cc1c(Cl)cccc1NC(=S)NC(=O)c1ccccc1 | inactive: -13.9% | –
21 | CCCCNC(=O)C1(C)CCCCN1C(=O)c1cccc(OC(F)(F)F)c1 (centres undefined) | – | inconclusive: 2.82 µM [inhibitor, single point]
22 | COc1cccc(CNC(=O)Cn2cc3c(n2)CCCC3)c1 | – | inconclusive: 3.16 µM [inhibitor, single point]
23 | Cc1ccc(-c2csc3nc(CN(C)Cc4ccccc4)[nH]c(=O)c23)cc1 | – | inconclusive: 11.2 µM [inhibitor, partial curve]

Row | SMILES | activity, negative = inhibition | Potency
24 | CCOc1cccc(C(=O)Nc2ccccc2N2CCN(C(=O)C(C)C)CC2)c1 | inactive: 12.6% | –
25 | Cc1cc(=O)oc(C)c1C(=O)N1CCN(C)CC1 | – | inconclusive: 35.5 µM [inhibitor, single point]
26 | O=C(Nc1ccc(Cl)cc1F)C1CC(=O)N(Cc2ccco2)C1 (centres undefined) | inactive: 0% | –
27 | FC(F)(F)c1cc(CCN2C(=S)NC[C@@H]2c2ccccc2)cc(C(F)(F)F)c1 | – | inconclusive: 35.5 µM [inhibitor, partial curve, poor fit]
28 | Cc1cc(C(C)(C)C)cc(C)c1CC1=NCCN1 | inactive: -11.1% | –
29 | Cc1ccccc1NC(=O)CSc1nc2ccc(NC(=O)c3ccco3)cc2s1 | inactive: -14.5% | –
30 | C=CCS/C(N)=N\N=C\c1c(O)ccc2ccccc12 | – | active: 7.94 µM
31 | CN(CC(=O)Nc1cccc(F)c1)C(=O)Cn1cnc2c1c(=O)n(C)c(=O)n2C | inactive: 1.92% | –
32 | O=C(Nc1ccc(F)cc1)C1C(c2ccccc2)C1(Cl)Cl (centres undefined) | – | active: 15.8 µM
33 | CC(=NNC(N)=S)c1ccc2cc3c(cc2c1)OCO3 | – | inconclusive: 25.1 µM [inhibitor, single point]
34 | O=C(Cc1ccc(S(=O)(=O)N2CCOCC2)s1)N1CCN(S(=O)(=O)c2cccc([N+](=O)[O-])c2)CC1 | inactive: 2.31% | –
35 | Cc1ccccc1-c1ccc2c(c1)O[C@@H](CN(C)C(=O)Nc1ccc(C(F)(F)F)cc1)[C@H](C)CN([C@@H](C)CO)S2(=O)=O | – | inconclusive: 22.4 µM [inhibitor, single point]
36 | CCOC(=O)Cn1nnnc1CN(Cc1cccs1)Cc1cc2cc(C)cc(C)c2[nH]c1=O | – | inconclusive: 35.5 µM [inhibitor, single point]
37 | COc1cccc(NC(=O)CN(C)S(=O)(=O)c2ccc3c(c2)n(C)c(=O)c(=O)n3C)c1 | inactive: 0.0434% | –
38 | S=C(NCc1ccco1)Nc1ccc(N2CCOCC2)cc1 | inactive: -14.7% | –
39 | CC(=O)Nc1ccc(Nc2ccc(S(=O)(=O)C(F)(F)F)cc2[N+](=O)[O-])cc1 | – | inconclusive: 35.5 µM [inhibitor, partial curve, poor fit]
40 | CC(C)(C)CC(C)(C)N=C1Nc2ccc([N+](=O)[O-])cc2N[C@]12C[C@H]1CCCC(=O)N3CC[C@@H](C2)[C@@H]13 | – | inconclusive: 35.5 µM [inhibitor, single point]
41 | COc1ccc(C2/C=C\CN(CC(C)C)C(C)C(=O)N2Cc2ccc(F)cc2)cc1 (centres undefined) | – | inconclusive: 12.6 µM [inhibitor, single point]
42 | S=C(NCC1CCCO1)Nc1ccc(Cl)c(Cl)c1 (centres undefined) | – | inconclusive: 35.5 µM [inhibitor, single point]
43 | Cc1ccc(C(=O)NCCSc2ccc(Cl)cc2)cc1S(=O)(=O)Nc1ccccc1 | – | inconclusive: 35.5 µM [inhibitor, single point]
44 | O=C(NCCCN1CCOCC1)c1ccc2c(c1)N(Cc1cccc(Cl)c1)C(=O)CS2 | inactive: 0.0987% | –
45 | Cc1cc(C)c2nc(NNC(=O)c3ccc(S(=O)(=O)N4CCCC(C)C4)cc3)sc2c1 (centres undefined) | – | inconclusive: 22.4 µM [inhibitor, single point]
46 | CCOc1ccc(NC(=O)Cn2cncc2-c2ccc([N+](=O)[O-])cc2)cc1 | – | inconclusive: 15.8 µM [inhibitor, single point]

Row | SMILES | activity, negative = inhibition | Potency
47 | CCC(=O)N(c1ccc(F)cc1)C1C=CS(=O)(=O)C1 (centres undefined) | – | inconclusive: 5.62 µM [inhibitor, partial curve, poor fit]
48 | COc1cc(/C=C2/C(=N)N3C=CSC3=NC2=O)ccc1OCCCOc1ccccc1C | – | inconclusive: 35.5 µM [inhibitor, single point]
49 | CCn1cc(S(=O)(=O)c2ccc(C)cc2)c(=O)c2cc(F)c(N3CCN(C)CC3)cc21 | inactive: -5.83% | –
50 | Nc1ccc(N2CCN(C(=O)c3ccco3)CC2)cc1 | inactive: -8.46% | –
51 | CCc1ccc(OC(=O)c2sc3ncn(Cc4cccc(F)c4)c(=O)c3c2C)cc1 | – | inconclusive: 5.62 µM [inhibitor, single point]
52 | O=C(Nc1ccccc1)Nc1ccc(S(=O)(=O)N2CCCCC2)cc1 | – | inconclusive: 35.5 µM [inhibitor, single point]
53 | CC(=NNc1nc2ccccc2o1)c1ncccn1 | – | inconclusive: 1.41 µM [inhibitor, full curve, poor fit]
54 | Cc1cccc(N2CCN(C(=O)c3ccc4c(c3)N(Cc3cccc(Cl)c3)C(=O)c3ccccc3S4=O)CC2)c1C (centres undefined) | – | inconclusive: 0.631 µM [inhibitor, full curve]
55 | Cc1ccc(-c2nc(SCC(=O)Nc3cc(C)on3)c3c(=O)n(C)c(=O)n(C)c3n2)cc1 | – | inactive
56 | COc1ccc(OC)c(NC(=O)c2cnc3n(c2=O)CCS3)c1 | – | inconclusive: 0.112 µM [inhibitor, full curve, poor fit]
57 | COc1ccc(-c2nnc(OCc3nc4ccccc4n3C)c3ccccc23)cc1 | – | inconclusive: 35.5 µM [inhibitor, single point]
58 | O=C(Nc1cccc(F)c1)c1ccc(-c2ccccc2Cl)o1 | – | inconclusive: 20 µM [inhibitor, partial curve, poor fit]
59 | Nc1nc2ccc(Br)cc2o1 | inactive: -28.7% | –
60 | C=CC[C@@H](CC(=O)OC(C)(C)C)C(=O)OC[C@@H]1CCCN1C(=O)[C@@H](CC=C)CC(=O)N[C@H](CO)Cc1ccccc1 | – | inconclusive: 15.8 µM [inhibitor, single point]
61 | CC1CCC(C(C)C)C(OC(=O)COC(=O)c2cc(O)ccc2N)C1 (centres undefined) | – | inconclusive: 35.5 µM [inhibitor, partial curve, poor fit]
62 | O=C(CSCc1ccc(F)cc1)N1CCc2c([nH]c3ccccc23)C1c1ccccc1 (centres undefined) | – | inconclusive: 1.12 µM [inhibitor, full curve]
63 | COc1ccc(-c2ccc(/C=C3/C(=N)N4C=CSC4=NC3=O)o2)c([N+](=O)[O-])c1 | – | inconclusive: 12.6 µM [inhibitor, partial curve]
64 | S=C(NCc1cccnc1)Nc1cc(Cl)cc(Cl)c1 | – | inconclusive: 17.8 µM [inhibitor, single point]
65 | CN1CCN(C(=O)CN(C)S(=O)(=O)c2ccc3ccccc3c2)CC1 | – | inconclusive: 35.5 µM [inhibitor, single point]
66 | CN(CC(=O)NCc1cccs1)CC(=O)Nc1ccccc1Cl | inactive: 3.46% | –
67 | COc1ccc(C2C(C#N)=C(N)Oc3c2c(-c2ccccc2)nn3-c2ccccc2)c(OC)c1OC (centres undefined) | – | inconclusive: 10 µM [inhibitor, partial curve, poor fit]
68 | CC(=O)Nc1ccc(S(=O)(=O)N2CCC(c3nc4ccc(C)cc4[nH]3)CC2)cc1 | – | inconclusive: 0.794 µM [inhibitor, partial curve, poor fit]
69 | CCC(C(=O)Nc1ccccc1OC)n1c(C(=O)OC)cc2ccsc21 (centres undefined) | – | inconclusive: 20 µM [inhibitor, partial curve, poor fit]
